Source: PubChem BioAssay AID1476 (National Center for Advancing Translational Sciences (NCATS), 2009)
The whole screen tested about 200,000 compounds, of which about 4,500 (2.2%) were called active. The shares of active, inactive and inconclusive entries below differ from those in the screen. Calls follow the shape of the dose curve; as a rule, active = well fitted inhibition curve with a large enough effect; inconclusive = small, poorly fitted or top-dose-only effect, or effect the other way; inactive = flat fitted curve, though single readings scatter. A potency beside an inconclusive call is a rough fit, not a confirmed value.

Target: Cruzipain (Trypanosoma cruzi) (UniProt P25779)
Experiment: qHTS Assay for Promiscuous and Specific Inhibitors of Cruzain (without detergent); also: nearly all actives have a fitted effect of over 40% in size;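 as to max response, negative = inhibition: plate controls were enzyme without inhibitor for no effect and buffer without enzyme for full effect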
Conditions: purified cruzain, Z-FR-AMC fluorescence, no detergent
Procedure, shortened: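 Detergent-free condition (0.00005% Triton X-100) in acetate buffer pH 5.5 with DTT. 1.5 nM enzyme and compound were pre-mixed 15 min, then 2 uM Z-FR-AMC substrate added; reaction progress from fluorescence change between first and third reads (60 s).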
Potency is read from the fitted curve at half-maximal effect; tags tell the direction and shape of the fitted curve.

Sequence of UniProt P25779 (P25779 whole entry, looked up): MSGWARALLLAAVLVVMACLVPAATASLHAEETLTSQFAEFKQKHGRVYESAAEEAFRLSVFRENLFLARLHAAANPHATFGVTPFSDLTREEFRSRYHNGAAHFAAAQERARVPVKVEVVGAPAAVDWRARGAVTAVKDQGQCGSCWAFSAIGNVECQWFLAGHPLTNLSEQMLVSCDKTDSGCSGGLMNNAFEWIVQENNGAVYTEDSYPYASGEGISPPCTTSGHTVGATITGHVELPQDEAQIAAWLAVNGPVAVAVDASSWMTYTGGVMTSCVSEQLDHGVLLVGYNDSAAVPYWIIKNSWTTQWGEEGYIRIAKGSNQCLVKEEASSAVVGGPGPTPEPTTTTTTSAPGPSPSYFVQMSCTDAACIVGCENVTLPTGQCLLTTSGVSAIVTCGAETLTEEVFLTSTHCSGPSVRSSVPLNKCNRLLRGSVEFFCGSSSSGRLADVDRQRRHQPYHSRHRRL

SMILES | Potency | max response, negative = inhibition
Cc1ccc(C(=O)NNC(=O)CSc2nnc3c(n2)[nH]c2ccc(C)cc23)cc1 | inconclusive: 31.6 µM [inhibitor, single point] | –
CCOc1cc(CNC(=O)CSc2n[nH]c(-c3ccccc3)n2)cc(OCC)c1OCC | inconclusive: 25.1 µM [activator, single point] | –
Cc1ccc(CNC(=O)CCCCCn2c(=O)c3sccc3n(CC(=O)C(C)(C)C)c2=O)cc1 | inconclusive: 31.6 µM [activator, single point] | –
CCOc1ccc2nc(N3C(=O)/C(=C/c4ccc(Cl)cc4)NC3=S)sc2c1 | inconclusive: 31.6 µM [inhibitor, single point] | –
Cc1cc2c(nc1C)CCCN2C[C@@H](C)O/N=C1/[C@H]2CCn3c(=O)n(-c4ccccc4)c(=O)n3[C@H]2[C@H](O)[C@@H]2O[C@H]12 | inconclusive: 7.94 µM [inhibitor, single point] | –
COc1ccc(NC(=O)c2cc3nc(-c4ccccc4)cc(-c4ccccc4)n3n2)c(OC)c1 | inconclusive: 3.98 µM [inhibitor, full curve, poor fit] | –
O=S(=O)(Nc1ccc2c(c1)nc1n2CCN(Cc2ccccc2)C1)c1ccc(Cl)cc1 | active: 25.1 µM | –
C=CCn1c(SCc2cc(C(C)=O)ccc2OCC)nc2ccccc2c1=O | inconclusive: 39.8 µM [inhibitor, single point] | –
Cc1ccc(C)c(N2CCN(C(=O)c3ccc(NS(=O)(=O)c4c(C)noc4C)cc3)CC2)c1 | inconclusive: 25.1 µM [activator, partial curve] | –
O=C(Nc1ccccc1)C1CCN(S(=O)(=O)c2ccc3c(c2)CCCN3C(=O)C2CCC2)CC1 | – | inactive: -1.98%
CC(C)OC(=O)c1c2c(n3ccccc13)C(=O)c1ccccc1C2=O | inconclusive: 39.8 µM [activator, single point] | –
N#Cc1ccc(-c2ccc(F)cc2)nc1Oc1ccc(F)cc1 | inconclusive: 39.8 µM [inhibitor, single point] | –
Cc1ccc(SCC(=O)Nc2ccc(O)c(-c3nc4cc(C)ccc4o3)c2)cc1 | – | inactive: -20.1%
Cc1ccc2c(C)nc(/N=C(\N)NC(=O)N3c4ccccc4Sc4ccccc43)nc2c1 | inconclusive: 31.6 µM [inhibitor, single point] | –
Cc1ccccc1-n1c(SCC(=O)c2ccccc2)nnc1-c1ccc(F)cc1 | – | inactive: 2.16%
Cc1cccc(CSc2nnc(NC(=O)c3ccco3)s2)c1 | inconclusive: 39.8 µM [inhibitor, single point] | –
O=c1c2ccccc2nc(/C=C/c2c[nH]c3ccccc23)n1-c1ccc([N+](=O)[O-])cc1 | inconclusive: 39.8 µM [inhibitor, single point] | –

SMILES | Potency | max response, negative = inhibition
CCOC(=O)c1[nH]c2ccc(Cl)cc2c1NC(=O)c1nonc1C | active: 10 µM | –
COc1cc(-c2nnc(COC(=O)c3c4c(nc5ccccc35)CCCC4)o2)cc(OC)c1OC | inconclusive: 39.8 µM [activator, single point] | –
COc1ccc(C2C(C(=O)N3CCN(c4ccccn4)CC3)CC(=O)N2c2ccc(OC)cc2)cc1 (stereo not drawn) | inconclusive: 31.6 µM [activator, single point] | –
O=C(NCC(c1ccco1)S(=O)(=O)c1ccc(Cl)cc1)c1ccc(C(F)(F)F)cc1 (stereo not drawn) | – | inactive: -21%
O=C(Cn1c(=O)n(Cc2ccco2)c(=O)c2sc3ccccc3c21)Nc1ccc(F)cc1F | – | inactive: -2.07%
COc1ccc(Cn2c(CNC(=O)Cc3ccc(OC)c(OC)c3)nc3cccnc32)cc1 | – | inactive: 10.4%
O=S(=O)(NCCc1nnc2ccc(SCc3cccc(Cl)c3)nn12)c1ccccc1 | inconclusive: 31.6 µM [activator, single point] | –
CCOc1ccc(-c2cc3nc(C4CCN(C(=O)OC(C)(C)C)CC4)c(C(=O)Nc4cccc(Cl)c4C)cn3n2)cc1 | active: 7.94 µM | –
COc1cccc(NC(=O)CSc2nnc(Cc3cccn3C)n2-c2ccc(F)cc2)c1 | inconclusive: 39.8 µM [activator, single point] | –
CC(C)(C)c1cc(/C=N/NC(=O)Cc2nc3ccccc3[nH]2)cc(C(C)(C)C)c1O | inconclusive: 39.8 µM [inhibitor, single point] | –
Cc1ccc(CS(=O)(=O)c2ccccc2-c2nnc(-c3ccc(Cl)cc3)o2)cc1 | inconclusive: 39.8 µM [inhibitor, single point] | –
CC1CCN(S(=O)(=O)c2ccc3[nH]ccc3c2)CC1 | – | inactive: -0.853%
Brc1ccc(-c2cn3cc(Cc4ccccc4)sc3n2)cc1 | inconclusive: 3.16 µM [inhibitor, full curve] | –
O=C(O)NCc1ccccc1 (tested in a mixture with another compound) | – | inactive: -9.94%
CN(C)[C@H]1N(C(=O)c2ccc(Br)cc2)N=C2c3ccccc3S(=O)(=O)N21 | – | inactive: 15.4%
CC(C)c1ccc(NC(=O)Cn2nnc(C(=O)NCCc3ccccc3)c2N)cc1 | active: 3.16 µM | –
